Measurements taken from PubChem BioAssay AID1461 (National Center for Advancing Translational Sciences (NCATS), 2008).
Among all 220,000 compounds or so, about 2,300 (1%) were called active. The shares of active, inactive and inconclusive entries below differ from those in the screen. Calls come from the whole dose curve; as a rule, active = well fitted inhibition curve with a large enough effect; inconclusive = small, poorly fitted or top-dose-only effect, or effect the other way; inactive = no such curve, though single readings can be large or run the other way. No potency is given beside an inconclusive call; the fits are too rough.
Note: nearly all actives have a fitted effect of over 50% in size.
Potency is the fitted concentration of half-maximal effect; tags give direction and shape of the fitted curve.

Each compound was assayed against Neuropeptide S receptor (Homo sapiens) (UniProt Q6W5P4) (assay: qHTS Assay for Antagonists of the Neuropeptide S Receptor: cAMP Signal Transduction). Conditions: CHO-NPSR cells, cAMP TR-FRET, antagonist mode; series mostly up to 38.3 µM.
Chain of UniProt Q6W5P4 (Q6W5P4 whole entry, looked up): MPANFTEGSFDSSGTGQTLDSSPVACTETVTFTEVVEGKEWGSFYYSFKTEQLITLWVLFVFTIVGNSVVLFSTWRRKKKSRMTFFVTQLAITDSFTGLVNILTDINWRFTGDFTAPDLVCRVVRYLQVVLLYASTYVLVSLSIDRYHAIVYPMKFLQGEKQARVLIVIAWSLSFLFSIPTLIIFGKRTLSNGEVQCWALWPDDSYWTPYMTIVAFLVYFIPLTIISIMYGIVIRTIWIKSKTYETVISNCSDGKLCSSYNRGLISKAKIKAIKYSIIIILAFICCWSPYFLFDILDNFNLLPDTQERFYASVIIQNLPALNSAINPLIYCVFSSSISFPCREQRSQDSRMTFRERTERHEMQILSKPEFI
`Cc1ccc([N+](=O)[O-])c(C(=O)Nc2cccnc2Cl)c1` was tested, and the Potency was “inactive”. In the case of `O=C(N/N=C/c1cccc(Oc2ccc([N+](=O)[O-])cc2[N+](=O)[O-])c1)c1cncc(Br)c1`, the Potency is reported as inconclusive [inhibitor, single point]. With `O=C(c1ccc2c(c1)OCCO2)C1CCN(S(=O)(=O)c2cccc(F)c2)CC1` the Potency was inconclusive [inhibitor, single point]. `CCCNc1nc(Nc2ccc(C)cc2)nc(N2CCCC2)n1` was tested, and the Potency was inconclusive [inhibitor, partial curve]. In the case of `CC1Oc2ccccc2C=C1/C=N/Nc1ccc(C(=O)O)cc1` (stereo not given), the Potency is reported as inconclusive [inhibitor, single point]. For `CCCCNC(=O)C1CCN(S(=O)(=O)c2cnc[nH]2)CC1`, the Potency was “inactive”. For `COc1ccc([N+](=O)[O-])cc1N(CC(O)CN(CC(C)C)CC(C)C)S(=O)(=O)c1ccccc1` (stereo not given), the Potency was inconclusive [inhibitor, partial curve]. For `Cn1c(=O)oc2cc(S(=O)(=O)N3CCCC(C(=O)NCc4cccs4)C3)ccc21` (stereo not given), the Potency was inconclusive [inhibitor, partial curve]. For `COc1ccc(C(c2nnnn2C2CCCC2)N2CCC(C)CC2)cc1` (stereo not given), the Potency was inconclusive [inhibitor, single point]. For `COC(=O)c1ccc2c(c1)C(C)(C)C(/C=C/c1ccc(O)cc1)=[N+]2C`, the Potency was inconclusive [inhibitor, single point]. For `CN(C)c1ccc(C=Nc2ccccc2)cc1`, the Potency was “inactive”. For `Cc1ccc(-c2nn(-c3ccccc3)cc2CNCc2ccccc2)cc1`, the Potency was inconclusive [inhibitor, single point]. With `COc1ccc(CCNC(=O)c2cc(-c3ccccc3OC)on2)cc1OC` the Potency was inconclusive [inhibitor, partial curve]. `COc1ccc(-c2csc(-c3ccc(C(=O)O)cc3)n2)cc1` was tested, and the Potency was “inactive”. `C(=N\Nc1nc(Nc2ccccc2)nc(Nc2ccccc2)n1)/c1ccncc1` was tested, and the Potency was “inactive”. `N#Cc1c(Nc2ccccc2)c(/C=N/N=C/c2ccccc2)c[nH]c1=O` was tested, and the Potency was inconclusive [inhibitor, single point]. For `Cc1ccc(C2C(C#N)=C(N)Oc3cc4c(cc32)OCO4)cc1` (stereo not given), the Potency was inconclusive [inhibitor, single point]. `COc1ccc(Cn2c(/C=C/c3ccccc3)nc3ccccc32)cc1` was tested, and the Potency was inconclusive [inhibitor, partial curve]. For `Cc1cc(C)c(C)c(S(=O)(=O)ON2C(=O)c3ccccc3C2=O)c1C`, the Potency was inconclusive [inhibitor, single point]. `CC(=O)Oc1ccc2ccccc2c1C(NC(=O)Cc1ccccc1)c1ccc(Cl)cc1` (stereo not given) was tested, and the Potency was inconclusive [inhibitor, single point]. In the case of `COc1ccc(-c2cc(N)n(S(=O)(=O)c3ccc(C)cc3)n2)c(OC)c1`, the Potency is reported as “inactive”. `COc1cccc(-c2csc(N3CCN(C(=O)Nc4ccc(Cl)cc4)CC3)n2)c1` was tested, and the Potency was inconclusive [activator, single point]. With `CCOc1ccc(-n2c(SCc3ccc(C(=O)OC)o3)nc3c(c2=O)SCC3)cc1` the Potency was inconclusive [inhibitor, partial curve]. In the case of `CCOc1ccc(S(=O)(=O)n2nnc3ccccc32)cc1C(C)C`, the Potency is reported as inconclusive [inhibitor, single point]. In the case of `C=CCOC(=O)C1=C(C)NC(SCC(=O)OCC)=C(C#N)C1c1ccc(C)cc1` (stereo not given), the Potency is reported as inconclusive [inhibitor, single point]. `O=[N+]([O-])c1ccc(Oc2cccc(Br)c2)c2ccncc12` was tested, and the Potency was “inactive”. With `COc1ccc(Nc2nc(N3CCCCC3)c3ccccc3n2)cc1` the Potency was inconclusive [inhibitor, single point]. `C=CCSc1nnc(NC(=O)COc2ccccc2)s1` was tested, and the Potency was “inactive”. In the case of `Cc1ccc2c(=O)c(C(=O)NCc3cccs3)c[nH]c2c1`, the Potency is reported as “inactive”. `COc1ccccc1N(C1=NCCCS1)S(=O)(=O)c1ccc(C(C)(C)C)cc1` was tested, and the Potency was inconclusive [activator, single point]. In the case of `CCOc1cccc(-c2nnc3sc(COc4ccc(OC)cc4)nn23)c1`, the Potency is reported as inconclusive [inhibitor, partial curve]. `Cc1nn(-c2ccccc2Cl)c(Cl)c1/C=N/Nc1nc2ccccc2s1` was tested, and the Potency was “inactive”. For `Cc1sc2nc(CN(C(=O)NC3CCCCC3)C3CCCC3)[nH]c(=O)c2c1C`, the Potency was inconclusive [inhibitor, single point]. With `CCOc1cc(/C=N/Nc2nc(Nc3ccccc3)nc(N3CCCCC3)n2)ccc1OCC(=O)O` the Potency was “inactive”. In the case of `CCC(C)NC(=O)C1CC(c2cccc(OC)c2)=NO1` (stereo not given), the Potency is reported as inconclusive [inhibitor, partial curve]. With `CN=c1scc(C)n1/N=C/c1ccc(O)c(O)c1O` the Potency was “inactive”. `COC(=O)Cn1c(CN(Cc2ccccc2)Cc2ccccc2)nc2c1c(=O)[nH]c(=O)n2C` was tested, and the Potency was inconclusive [inhibitor, single point]. In the case of `Cc1ccc2cc(CN(Cc3cccs3)Cc3nnnn3C(C)(C)C)c3nnnn3c2c1`, the Potency is reported as inconclusive [inhibitor, single point]. With `COc1ccc(N=Cc2cc3c(cc2O)OC(N)=C(C#N)C3c2ccccc2)cc1` (stereo not given) the Potency was inconclusive [inhibitor, single point]. `COc1ccc(/C=N/O)cc1COc1ccc(NC(C)=O)cc1` was tested, and the Potency was “inactive”. `C=CCn1c(CNc2ccc(C)cc2)nnc1SCC(=O)N/N=C/c1ccc(O)cc1O` was tested, and the Potency was “inactive”. With `Cc1ccc(-n2c(=S)[nH]c3c(oc4ccccc43)c2=O)cc1` the Potency was inconclusive [activator, partial curve]. For `O=C(Nc1ccc2oc(=O)ccc2c1)c1cc2ccccc2o1`, the Potency was “inactive”. With `CC1Cc2nc(SCC(=O)Nc3ccc(F)cc3F)n(C)c(=O)c2S1` (stereo not given) the Potency was inconclusive [inhibitor, full curve, poor fit]. With `Cc1cc2nn(-c3ccccc3)nc2cc1NC(=O)c1cccs1` the Potency was inconclusive [inhibitor, single point].
